About 360 (0.19%) of roughly 190,000 compounds were called active. This list was built around the results that the source calls inconclusive (neither active nor inactive); the mix of calls is not that of the screen.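 How the source made its calls: active means GTP binding activity at least 20 points away from 100%, either lowered or raised; inconclusive means signal likely due to the compound's own green fluorescence; inactive means the rest.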
Target: Ras-related protein Rab-2A (Canis lupus familiaris) (UniProt P61105)
Experiment: Rab2 wt fluorescent GTP binding changes, either direction – biochemical, dog, bead-based flow cytometry, multiplex, primary screen (AID 760);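 further: 0% = beads with excess unlabeled GTP and 100% = no-compound control corrected for plate trend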
Details: GST-Rab2 wt beads, Bodipy-GTP binding, at 10 µM

GTP binding activity, active:
CC(C)CCn1c(CN2CCN(Cc3ccccc3)CC2)nc2c1c(=O)n(C)c(=O)n2C 123% [activator]
O=C(Nc1nc(-c2ccc(S(=O)(=O)N3CCCC3)cc2)cs1)c1cccs1 70%
Nc1nn2c(-c3ccccc3)cc(=O)[nH]c2c1N=Nc1ccc(Br)cc1 75%
O=C(O)CC/C(=C\c1ccccc1[N+](=O)[O-])c1nc2ccccc2s1 76%
C/C=C/c1ccccc1OCc1ccc(C(=O)O)o1 149% [activator]
O=C(Nc1cccc2ccccc12)c1cnccn1 67%
Cc1cc(NC(=O)CSc2nc(-c3ccccc3)c(C#N)c(=O)[nH]2)no1 78%
COC(=O)COc1ccc(/C=N/NC(=O)c2ccc(N(Cc3ccccc3)S(C)(=O)=O)cc2)cc1 76%

GTP binding activity, inconclusive:
O=C(NCC1CCCO1)C(c1ccc(F)cc1)N(C(=O)Cn1nnc(-c2ccc(F)cc2)n1)c1cccc(O)c1 (configuration not stated) 94%
Cc1nn2c([nH]c(=O)c3ccccc32)c1C=O 95%
Cc1ccc(-n2[nH]c(C)c(/C=N/NC(=O)c3ccc([N+](=O)[O-])cc3)c2=O)c(C)c1 89%
CCN1/C(=C/C=C/c2oc3ccc4ccccc4c3[n+]2CC)Oc2ccc3ccccc3c21 304%
CC(=O)c1cccc(NC(=O)CN(c2ccccc2F)S(C)(=O)=O)c1 106%
CN(c1ccccc1)S(=O)(=O)c1cccc(NC(=O)CSc2ncc(C(F)(F)F)cc2Cl)c1 93%
CCOC(=O)C1=C(C)NC(C)=C(C(=O)OCC)C1c1cn(-c2ccccc2)nc1-c1ccco1 101%
CC(C)(C)OC(=O)NCCCC[C@H](NC(=O)c1nc[nH]c1C(=O)N1CCN(C(=O)OC(C)(C)C)CC1)C(=O)OC(C)(C)C 93%
COc1ccc(OC)c2c(N3CCN(C)CC3)cc(C(F)(F)F)nc12 102%
c1cncc(CN=C2Nc3ccccc3CS2)c1 90%
CCOc1ccc(NC(=O)CSc2nc3cccnc3n2CCOC)cc1 103%
CCc1ccccc1NC(=O)c1onc(C)c1Cl 102%
Cc1cc(C(=O)O)ccc1-c1ccc(/C=C2\NC(=O)N(Cc3ccccc3Cl)C2=O)o1 85%
COc1ccc(CCNC(=O)c2ccccc2Cl)cc1OC 95%
NNC(=O)CN1C(c2ccc(Cl)cc2)=Nc2ccc(Br)cc2C1c1ccccc1 (configuration not stated) 96%
COc1cccc2cc(C(C)=O)c(=O)oc12 106%
COc1ccc(Cc2nnc(N/N=C/c3ccc(C)o3)[nH]c2=O)cc1 95%
Cn1nc(-c2ccccc2)c(-c2nc(-c3cccc(C(F)(F)F)c3)no2)c1Cl 94%
Cc1ccc(C2CC(c3ccco3)=NN2S(C)(=O)=O)cc1 (configuration not stated) 102%
O=C(CCCN1C(=O)/C(=C/c2ccccc2)SC1=S)Nc1ccccc1O 89%
COc1ccccc1C(=O)Nc1ccc(OCc2nnc3c4ccccc4c(C)nn23)cc1 87%
CCCC(=O)NCc1nc2ccccc2n1C 91%
FC(F)Sc1ccc(NC(=S)NC(c2ccccc2)c2ccccc2)cc1 93%
Nc1nnn(Cc2ccccc2)n1 105%
COC(=O)CCCCC1SCC(NC(=O)OC)C1NC(=O)OC (configuration not stated) 103%
Cc1cc(=O)n2nc(N3CCCC3C(=O)NCc3ccccn3)sc2n1 (configuration not stated) 103%
Cc1ccc(-c2nnc(SCC(=O)NC(=O)Nc3ccc(C)cc3C)n2N)cc1 100%
O=c1c2ccccc2oc2nc(-c3ccco3)n(Cc3ccccc3)c(=O)c12 103%
Cn1c(=O)c2c(nc(Br)n2CCCc2ccccc2)n(C)c1=O 89%
O=[N+]([O-])c1cccc(-c2nnc(SCc3cccnc3)o2)c1 93%
COC(=O)[C@H](CCSC)NC(=O)NC1CCN(Cc2ccccc2)CC1 107%
CCn1ncc(Cl)c1C(=O)Nc1cc(Cl)ccc1Cl 85%
CCN(CC)c1ccc(/C=C/C(=O)c2ccc(Br)cc2)cc1 139%
COC(=O)c1cccc(-n2cnnn2)c1 99%
Cc1ccc2nc(C)c(C(=O)N/N=C/c3cccs3)cc2c1 96%
CCOC(=O)c1sc2nc(CC(=O)OC)nc(N3CCN(c4ccccn4)CC3)c2c1C 93%
CCN(C(=O)COc1cc(=O)n(C)c2ccccc12)c1cccc(Cl)c1 106%
O=c1[nH][nH]c(-c2ccccc2O)c1C(C[N+](=O)[O-])c1ccccc1 (configuration not stated) 96%
CCNC(=O)CC1C(=O)N(c2ccc(F)cc2)C(=O)N1Cc1ccccn1 (configuration not stated) 107%
COc1ccc(/C=N\NC(=O)CCN2CCN(c3ccccc3)CC2)cc1OC 82%
O=C(CSc1nc2nn(-c3ccccc3)c(=O)c-2c2n1CCCCC2)NCCCc1ccccc1 93%
CC(C)c1ccc(NC(=O)COC(=O)/C=C/c2cccc([N+](=O)[O-])c2)cc1 85%
ClC1(Cl)CC1CSc1nc2ccccc2[nH]1 (configuration not stated) 93%
O=C(NCCC(c1ccccc1)c1ccccc1)c1cnccn1 105%
COc1ccc(/C=C/C(=O)NC(=S)Nc2cc([N+](=O)[O-])ccc2O)cc1OC 87%
COc1ccc(-n2cccc2/C=C2\C(=N)N3N=C(c4ccco4)SC3=NC2=O)cc1 85%
COc1ccccc1NC(=O)C1CC(=O)OC1c1ccccc1 (configuration not stated) 100%
Cc1nnc(SCC(=O)c2ccc(S(=O)(=O)N3CCOCC3)cc2)n1-c1ccccc1 100%
O=C(Cn1cnc2c(nnn2Cc2ccc(F)cc2)c1=O)NCc1ccc2c(c1)OCO2 98%

GTP binding activity, inactive:
Cc1cc(C)c(C#N)c(SCc2ccccc2)n1 101%
Cc1cc(OCc2nnc(SC(C)C(=O)O)n2Cc2ccccc2)ccc1Cl (configuration not stated) 96%
CC(=O)c1cccc(CN2CCCC(CCC(=O)NCc3ccc(C)o3)C2)c1 (configuration not stated) 93%
CCCC(=O)NC(=S)c1c(C)n(C)n(-c2ccccc2)c1=O 99%
Cc1cc(OC(C)C(N)=O)nc(-c2ccccc2)n1 (configuration not stated) 101%
COC(=O)c1ccc(NC(=O)Cn2nc(C)cc2C)cc1 103%
CC1(CC(=O)N/N=C/c2cc3c(cc2Br)OCO3)OCCO1 98%
CN(C[C@H](Cc1ccccc1)N(C[C@H](c1ccccc1)N(CCc1ccccc1)N=O)N=O)N=O 95%
Cc1cc(F)ccc1NCC(=O)Nc1ccccc1Br 101%
O=C(CCCOc1ccccc1)Nc1ccc(S(=O)(=O)Nc2ccccn2)cc1 95%
Cn1cccc1-c1cc(C(=O)N/N=C/C=C/c2ccccc2)[nH]n1 94%
CN1CCN(c2ccc(C(=O)c3ccc(Br)cc3)cc2[N+](=O)[O-])CC1 98%
Cc1cc(C)c2c(c1)SC1=NC(c3ccccc3)(C(F)(F)F)NC(=O)N12 (configuration not stated) 100%
Cc1ccc(CNC(=O)/C=C/c2ccc(S(=O)(=O)N3CCOCC3)cc2)cc1 99%
O=[N+]([O-])c1ccc(NCCCNS(=O)(=O)c2ccccc2)cc1 96%
CCOc1ccc(C(=O)Nc2cccc(C(C)=O)c2)cc1[N+](=O)[O-] 100%
O=C(Nc1cccc(-c2nnc(-c3ccco3)o2)c1)c1ccccc1 85%
CCCCn1c(O)c(/C=C/C=C/C=Nc2ccccc2)sc1=S 88%
CCC(C)(C)C(=O)Nc1cccc(Cl)c1C 101%
O=C(COC(=O)C1(c2ccccc2F)CCCC1)NCc1cccs1 100%
O=C(c1cnccn1)N1CCc2ccccc2C1 104%
COc1ccc(-n2cnnc2SCC(=O)NC2CCCc3ccccc32)cc1 (configuration not stated) 102%
CC1(C)CC(=O)C=C(C(=O)N2CCCC(C(=O)c3cccc(Cl)c3)C2)O1 (configuration not stated) 98%
CCOC(=O)NC1(C(F)(F)F)C(=O)N(Cc2ccccc2)C2=C1C(=O)CC(C)(C)C2 (configuration not stated) 97%
CCOC(=O)Cc1csc(NC(=O)COc2cc(C)cc(C)c2)n1 94%
C=CCn1c(SCC(=O)NC23CC4CC(CC(C4)C2)C3)nc2cc(C(=O)O)ccc2c1=O 97%
CC(C)c1ccc(OCC(=O)NC2=NCCS2)cc1 97%
CCOc1ccc(Br)cc1C1C(C(=O)OC)=C(N)Oc2cc(N(C)C)ccc21 (configuration not stated) 104%
COc1ccccc1Nc1nc(N)nc(CN2CC(C)CC(C)C2)n1 (configuration not stated) 99%
O=C(Cc1csc(NC(=O)c2ccc(F)cc2)n1)NO 100%
COc1ccccc1OCCn1cc(C#N)c2ccccc21 103%
O=C(Nc1ccc([N+](=O)[O-])cc1)c1cc(-c2ccccn2)nc2c(Cl)cccc12 110%
Cc1ccc2cc(COC(=O)C3CCCO3)c(=O)[nH]c2c1 (configuration not stated) 102%
Cc1ccccc1-c1nnc(-c2ccc(Cl)cc2)o1 98%
CC1CC(C)(C)CC2(C1)NC(=O)N(CC(=O)NC1CCCc3ccccc31)C2=O (configuration not stated) 96%
